This sample is rich in variants without activity.
B1: TPR 5TU (parent)
chain: GGAUCUUCUCGAUCUAACAAAAAAGACAAAUCUGCCACAAAGCUUGAGAGCAUCUUCGGAUGCAGAGGCGGCAGCCUUCGGUGGCGCGAUAGCGCCAACGUUCUCAACUAUGACACGCAAAACGCGUGCUCCGUUGAAUGGAGUUUAUCAUG

Variants of: B1
Test: polymerase ribozyme fitness, log enrichment relative to wild type (log ratio); higher = more active; in vitro selection for triplet polymerase activity
How it was run: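 Fitness compares each genotype's enrichment to that of the wild type on a logarithmic scale, averaging replicates with inverse-variance weights. The logarithm is base 2. Enrichment came from Illumina sequencing of input and output libraries after one triplicate round of in vitro selection, which included frozen incubation at −7 °C, of PCR-built, transcribed mutant libraries of each subunit of a heterodimeric triplet polymerase ribozyme. Only genotypes with ≥10 input reads and ≥1 read per output were kept.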

Variant	polymerase ribozyme fitness (log ratio)
A30U U55G C63U A110U G126U	-4.07
A30U U55G G80A C85U A91C C125A	≤ -4.2
A30U U56A A64G C76U G81A C93A U102A G136C	≤ -4.2
A30U U56A G58A U101G C103G U130G C132A U135C	≤ -4.2
A30U U56G G58C C75A G84U C116A	≤ -4.2
A30U U56G G71A C75A	≤ -4.2
A30U U56G U82C G84U C95U	≤ -4.2
A30U U61A C85G C95G A113C A115G	≤ -4.2
A30U U77A C85U G133U	≤ -4.2
A30U U82A C85A U104A	≤ -4.2
A30U U90G A91U U111G	≤ -4.2
A30U U102G G143U	≤ -4.2
A30U U134C	-3.45
U31A A39G A40U A41C G48A C95U C131G U148A	≤ -4.2
U31A A39G G94U	-2.07
U31A A40G U44G G141C	-4.06
U31A A41C A49C G59A C96A	≤ -4.2
U31A A41C A66G	≤ -4.2
U31A A52U G83A C123A U127A	≤ -4.2
U31A A60G A91U C131G	≤ -4.2
U31A A66C G67C G88A G141A U146G	≤ -4.2

Variant	polymerase ribozyme fitness (log ratio)
U31A A73C C87U A122G G143U	≤ -4.2
U31A A89C	-0.512
U31A A89C C149G	≤ -4.2
U31A A97U	-0.316
U31A A106G	0.863
U31A C32A G59A C93G A113U A150C	≤ -4.2
U31A C32G G88C A113U C116U U148A	≤ -4.2
U31A C35U G68C C79A G84A C103G C105A	≤ -4.2
U31A C36A A66U U77A C108A	≤ -4.2
U31A C38U C95U C96A	-1.16
U31A C43U U44G G62A G71A U90G A91C	≤ -4.2
U31A C51A G83C C105U A119C A137C	≤ -4.2
U31A C51G G80A C85U G88C C114U G128U G141U	≤ -4.2
U31A C54U G83U G94U G124A A142C	-4.09
U31A C57A C87U A97C G117A A119U	1.02
U31A C57U C93U A106G G117C C129A G140U U151A	≤ -4.2
U31A C69G A89U C96G U104A	-3.89
U31A C75G C95U C118U	-3.7
U31A C76G G86U G143U	≤ -4.2
U31A C76U C116U U127G	≤ -4.2
U31A C85U C95A A110U	≤ -4.2

Variant	polymerase ribozyme fitness (log ratio)
U31A C85U C114U	-1.15
U31A C93A U127C	-3.92
U31A C93U	0.0654
U31A C95G C125A	-1.34
U31A C96G A98U C99U U151C	≤ -4.2
U31A G34A G50U G58U C96A A138U U151A	≤ -4.2
U31A G34A G50U G58U C96A G136A G140U	≤ -4.2
U31A G46C C95U	-1.57
U31A G48C G92U G94A A97C U101C	≤ -4.2
U31A G50A C51G A97G A115G	≤ -4.2
U31A G50C C51G U53G C93G C103A G112A A119G U134G U135A	≤ -4.2
U31A G50C C95A C116U U148A	≤ -4.2
U31A G58A U61A G84U A89C	-3.15
U31A G59C A64G C87U A122U A142C	≤ -4.2
U31A G59C G65A C75G C85A	≤ -4.2
U31A G65U C93G U135C	≤ -4.2
U31A G67A C103G A113U C132U	≤ -4.2
U31A G67C G70U U77C	≤ -4.2
U31A G68C C76A C85A	≤ -4.2
U31A G70A C76A C96U	≤ -4.2
U31A G71U C125U G126C	≤ -4.2

Variant	polymerase ribozyme fitness (log ratio)
U31A G86A U134C	-0.431
U31A U44A C69A C95A A98U	≤ -4.2
U31A U44G G50C A52G U61A A120C G140U	≤ -4.2
U31A U45A C87G U101G	≤ -4.2
U31A U45A U55G C85U C95G A120G A142U	-4.06
U31A U45C G71A C87U A97G C105U G117A U148A	≤ -4.2
U31A U53A G92C A122U A137C	≤ -4.2
U31A U53G G84U C96G	≤ -4.2
U31A U55A C95U G128U A137C G143U	≤ -4.2
U31A U56A G86A A97C C105A U145C	≤ -4.2
U31A U61A U77G G81C C87U	≤ -4.2
U31A U111G A119U A121C A137C	≤ -4.2
U31C A37C G92U C96A A106C A122U G143C G152C	≤ -4.2
U31C A37G A60G A64C C76U	≤ -4.2
U31C A37G C57G U61G U102G G128A G141U	≤ -4.2
U31C A41C C43U G50C U78A U145A	≤ -4.2
U31C A52C C54U U139C G143U	≤ -4.2
U31C A52C C87A C105U A121G U148A	≤ -4.2
U31C A52U C75G C95U U145C	≤ -4.2
U31C A60C C95A C99G A122G	-3.66
U31C A60U C72G C87A U139C	≤ -4.2

Reference: the RNAGym collection of RNA variant scans (doi:10.1073/pnas.2313332121)
